In article PMC6919601, “Identification of Plasmodium dipeptidyl aminopeptidase allosteric inhibitors by high throughput screening” (PLoS ONE, 2019):
Among all 110,000 compounds or so, about 230 (0.21%) showed an effect of 50% or more. This is one part of the list.

Target: DPAP1 (Plasmodium falciparum, UniProt Q8IIJ9)
Test: primary screen, percent inhibition; read by cleavage of a fluorogenic dipeptide substrate; higher = more effect of the substance
Design: species or system P. falciparum D10 trophozoite lysates; single well
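Also: 30 min substrate incubation versus DMSO and 10 µM JCP410 controls.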

Sequence of DPAP1 (Q8IIJ9 whole entry, looked up): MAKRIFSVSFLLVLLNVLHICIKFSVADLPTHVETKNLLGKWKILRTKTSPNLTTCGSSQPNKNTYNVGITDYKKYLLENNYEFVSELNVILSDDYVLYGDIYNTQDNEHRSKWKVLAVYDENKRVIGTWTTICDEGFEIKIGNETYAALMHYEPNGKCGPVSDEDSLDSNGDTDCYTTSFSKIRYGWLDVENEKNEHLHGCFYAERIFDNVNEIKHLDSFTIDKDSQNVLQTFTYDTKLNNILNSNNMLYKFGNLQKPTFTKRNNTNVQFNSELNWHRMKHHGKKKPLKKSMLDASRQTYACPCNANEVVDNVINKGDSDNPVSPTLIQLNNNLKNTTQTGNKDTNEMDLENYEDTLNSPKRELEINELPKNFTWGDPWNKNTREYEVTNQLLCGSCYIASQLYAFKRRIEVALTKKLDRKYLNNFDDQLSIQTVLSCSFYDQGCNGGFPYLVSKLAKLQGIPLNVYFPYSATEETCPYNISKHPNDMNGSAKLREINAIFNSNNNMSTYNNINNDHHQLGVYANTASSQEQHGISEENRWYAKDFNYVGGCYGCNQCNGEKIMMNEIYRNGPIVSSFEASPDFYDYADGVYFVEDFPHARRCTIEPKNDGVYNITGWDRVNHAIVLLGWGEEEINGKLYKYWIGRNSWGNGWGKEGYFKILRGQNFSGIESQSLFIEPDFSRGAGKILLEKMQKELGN

| SMILES | % Inhibition @ 10 uM |
| --- | --- |
| CCOC(=O)N1CCN(S(=O)(=O)c2cc(Cl)c(C)cc2OC)CC1 | 3.58% |
| CCC1SC2=NC(C)=C(C(=O)OC)C(c3ccc(OCc4ccccc4)c(OC)c3)N2C1=O (stereo not drawn) | 2.24% |
| O=C1C(=O)N(CCc2ccccc2)c2ccccc21 | -1.74% |
| COc1ccc(NC(=O)c2nc3nc(-c4ccccc4)cc(C(F)(F)F)n3n2)cc1OC | -1.99% |
| Cc1cc(Cl)ccc1OCC(=O)Nc1ccc(CC#N)cc1 | 1.72% |
| OC(CNC1CCCCC1)Cn1c(C(F)(F)F)nc2ccccc21 (stereo not drawn) | 2.31% |
| C1CCN(CCCNC2C3CC4CC(C3)CC2C4)C1 (stereo not drawn) | -0.192% |
| CCCCN(C)C(=O)c1cc(-c2ccccn2)nc2ccc(S(=O)(=O)N3CCC(C)CC3)cc12 | -2.72% |
| COc1ccc2c(CNCc3ccccc3)c(C(=O)O)[nH]c2c1 | -2.1% |
| COc1cc(OC)cc(-c2nnc(NC(=O)c3ccc(S(=O)(=O)N4CCCC(C)C4)cc3)o2)c1 (stereo not drawn) | -0.363% |
| Cc1ccc(N(C(=O)c2cccc(F)c2)c2nc(C(F)(F)F)c(-c3ccc(Cl)cc3)s2)c(C)c1 | 6.31% |
| CCc1cccc(CC)c1NC(=O)Cn1cnc2ccccc2c1=O | 2.09% |
| Cc1cc2oc(C(=O)NCCc3ccc(S(N)(=O)=O)cc3)c(C)c2cc1C | -4.66% |
| Cc1ccnc(NC(=O)COc2ccc(C)cc2C)c1 | 1.38% |
| COc1ccc(/C=C2\SC(N3CCCCC3)=NC2=O)cc1OC | -3.72% |
| COc1ccc(C2CC(c3ccccc3)=NN2S(=O)(=O)c2ccccc2)cc1 (stereo not drawn) | -6.3% |
| COc1ccc(NC(=O)c2ccc(Cl)cc2Cl)cn1 | -0.185% |
| Cc1cccc(C(=O)Nc2sc3c(c2C(=O)N2CCN(C)CC2)CCC(C)C3)c1 (stereo not drawn) | -0.28% |
| CCOC(=O)/C(C#N)=C/c1c(Oc2ccc(C)cc2)nc2c(C)cccn2c1=O | -1.43% |
| O=C(NCCc1ccccc1)c1noc2c1CCc1ccccc1-2 | -7.85% |
| O=C(O)CNC(=O)c1ccccc1 | 3.39% |
| COc1ccc(-c2cc(C(F)(F)F)nc(SCC(=O)NCc3ccncc3)n2)cc1OC | 30.6% |
| CCC(O)c1ccc(OC)c(OC)c1 (stereo not drawn) | -3.38% |
| CC1(C)Oc2ccc3ccc(=O)oc3c2CC1=O | -4.87% |
| Cc1ccc(C(C)C)cc1S(=O)(=O)NCc1cccnc1 | -8.41% |
| CCCn1c2ccccc2c2cnn(CC(=O)NCCN3CC(C)CC(C)C3)c(=O)c21 (stereo not drawn) | 0.00353% |
| COc1ccc(/C=C2/C(=O)CNC2=O)cc1 | 0.484% |
